Measured values: the RNAGym collection of RNA variant scans (doi:10.1073/pnas.2313332121)
Variants at the background level are over-represented here.

B1: TPR 5TU (parent)
chain: GGAUCUUCUCGAUCUAACAAAAAAGACAAAUCUGCCACAAAGCUUGAGAGCAUCUUCGGAUGCAGAGGCGGCAGCCUUCGGUGGCGCGAUAGCGCCAACGUUCUCAACUAUGACACGCAAAACGCGUGCUCCGUUGAAUGGAGUUUAUCAUG

Variants of: B1
Assay: polymerase ribozyme fitness, log enrichment relative to wild type (log ratio); higher = more active; in vitro selection for triplet polymerase activity
How it was run: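 Fitness measures genotype enrichment against wild-type enrichment on a logarithmic scale, with inverse-variance-weighted averaging of replicates. The logarithm is base 2, and genotypes were kept only with ≥10 input reads and ≥1 read per output in Illumina sequencing. The sequenced libraries came from one triplicate in vitro selection round, including frozen incubation at −7 °C, of PCR-built, transcribed mutant libraries of each subunit of a heterodimeric triplet polymerase ribozyme.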

Going from GGAUCUUCUCGAUCUAACAAAAAAGACAAAUCUGCCACAAAGCUUGAGAGCAUCUUCGGAUGCAGAGGCGGCAGCCUUCGGUUGCGCGAUAGCGCCAACGUUCUCAACUAUGACACGCAAAACGCGAGCUCCGUUGAAUGGAGUUUAUCAUG [G83U U127A] to GGAUCUUCUCGAUCUAACAAAAAAGACAAAUCUGCCACAAAGCUUGAGAGCAUCUUCGGAUGCAGAGGCGGCAGCCUUCGGUUGCGCGAUAGCGCCAACGUUCUCAUCUAUGACACGCAAAACGCGUGCUCCGUUGAAUGUAGUUUAUCAUG [G83U A107U G141U], the “polymerase ribozyme fitness (log ratio)” value falls from -3.18 to no more than -4.2.

Compared with GGAUCUUCUCGAUCUAACAAAAAAGACAAAUCUGCCACAAAGCUUGAGAGCAUCUUCGGAUGCAGAGGCGGCAGCCUUCGGUCGCGCGAUAGCGCCAACGUUCUCAACAAUGACCCGCAAAACGCGUGCUCCGUUGAAUCGAGUUUAUCAUG [G83C U109A A115C G140C], GGAUCUUCUCGAUCUAACAAAAAAGACAAAUCUGCCACAAAGCUUGAGAGCAUCUUCGGAUGCAGAGGCGGCAGCCUUCGGUGACGCGAUAGCGCGAACGUUCUCAACUAUGACACGCAAAACGCGUGCUCCGUUGAAUGGAGUUUAUCAUG [G84A C96G] is higher in “polymerase ribozyme fitness (log ratio)” value: no more than -4.2 for the first, -0.627 for the second.

Going from GGAUCUUCUCGAUCUAACAAAAAAGACAAAUCUGCCACAAAGCUUGAGAGCAUCUUCGGAUGCAGAGGCGGCAGCCUUCGGUGACGCGAUAGCGCCUACGUUCUCAACUAUGACACGCAAAACGCGUGCUCCGUUGAAUGGAGUUUAUCAUG [G84A A97U] to GGAUCUUCUCGAUCUAACAAAAAAGACAAAUCUGCCACAAAGCUUGAGAGCAUCUUCGGAUGCAGAGGCGGCAGCCUUCGGUGACGCGGUAGCGCCAACCUUCUCAACUAUGACGCGCAAAACGUGUGCUCCGUUGAAUGGAGUUUAUCAUG [G84A A89G G100C A115G C125U], the “polymerase ribozyme fitness (log ratio)” value falls from -1.12 to no more than -4.2.

First: GGAUCUUCUCGAUCUAACAAAAAAGACAAAUCUGCCACAAAGCUUGAGAGCAUCUUCGGAUGCAGAGGCGGCAGCCUUCGGUUGCGCGAUAGCGGCAACGUUCUCAACUAUGACACGCAAAACGCUUGCUCCGUUGAAUGGAGUUUAUCAUG [G83U C95G G126U]
Second: GGAUCUUCUCGAUCUAACAAAAAAGACAAAUCUGCCACAAAGCUUGAGAGCAUCUUCGGAUGCAGAGGCGGCAGCCUUCGGUGACGCGAUAGCGCCAACGUUCUCAACUAUGACACGCAAAACGCGUGCUCCGUUGAAUGGAGUUUCUCAUG [G84A A147C]
The “polymerase ribozyme fitness (log ratio)” value of the first is lower: -1.85 for the first, -0.0528 for the second.

GGAUCUUCUCGAUCUAACAAAAAAGACAAAUCUGCCACAAAGCUUGAGAGCAUCUUCGGAUGCAGAGGCGGCAGCCUUCGGUUGCGGGAUAGCGCCAAUGUUCUCAACUAUGACACGCAAAACGCGUGCUCCGUUGAAUGGAGUUUAUCAUG [G83U C87G C99U] and GGAUCUUCUCGAUCUAACAAAAAAGACAAAUCUGCCACAAAGCUUGAGAGCAUCUUCGGAUGCAGAGGCGGCAGCCUUCGGUGACGCGAUAGCGCCAACGUUCUCAACUAUGACACGCAAAGCGCGUGCUCCGUUGAAUAAAGUUUAUCAUG [G84A A122G G140A G141A] cannot be ordered by “polymerase ribozyme fitness (log ratio)” value: no more than -4.2 for the first, no more than -4.2 for the second.

Compared with GGAUCUUCUCGAUCUAACAAAAAAGACAAAUCUGCCACAAAGCUUGAGAGCAUCUUCGGAUGCAGAGGCGGCAGCCUUCGGUUGCGCGAUAGCGCCAACGUUCUCAACUAUGACACGAAAAACGUGUGCUCCGUUGAAUGGAGUUUACCAUG [G83U C118A C125U U148C], GGAUCUUCUCGAUCUAACAAAAAAGACAAAUCUGCCACAAAGCUUGAGAGCAUCUUCGGAUGCAGAGGCGGCAGCCUUCGGUUGCGCGAUAGCGCCAACGUUCUCAACUAUGACACGCAAAACGCGUGCUCCGUUGAAUGGAGUUUAUUAUG [G83U C149U] is higher in “polymerase ribozyme fitness (log ratio)” value: no more than -4.2 for the first, -1.76 for the second.

Compared with GGAUCUUCUCGAUCUAACAAAAAAGACAAAUCUGCCACAAAGCUUGAGAGCAUCUUCGGAUGCAGAGGCGGCAGCCUUCGGUGACGCGAUAGCGCCAACGUUCUCAACUAUGACUCGCAAAACGCGUGCUCCGUUGAAUGGAGUUUAUCAUG [G84A A115U], GGAUCUUCUCGAUCUAACAAAAAAGACAAAUCUGCCACAAAGCUUGAGAGCAUCUUCGGAUGCAGAGGCGGCAGCCUUCGGUUGCGCGAUAGCGCCAACGUUCUCAACUAUGACACGCAAAACGCAUGCUCCGUUGAAUGGAGUUUAUCAUG [G83U G126A] is higher in “polymerase ribozyme fitness (log ratio)” value: -2.62 for the first, -0.669 for the second.

Compared with GGAUCUUCUCGAUCUAACAAAAAAGACAAAUCUGCCACAAAGCUUGAGAGCAUCUUCGGAUGCAGAGGCGGCAGCCUUCGGUGACGCGAUAGCGGCAACGUUCUCAACUAUGACACGCAAAACGCGUGCUCCGUUGAAUGGAGUUUAUCAUG [G84A C95G], GGAUCUUCUCGAUCUAACAAAAAAGACAAAUCUGCCACAAAGCUUGAGAGCAUCUUCGGAUGCAGAGGCGGCAGCCUUCGGUGACGCGAUAGCGACAACGUUCUCAACUAUGACACGCAAAACGCGUGCUCCGUUGAAUGGAGUUUAUCAUG [G84A C95A] is higher in “polymerase ribozyme fitness (log ratio)” value: -0.784 for the first, -0.531 for the second.

Going from GGAUCUUCUCGAUCUAACAAAAAAGACAAAUCUGCCACAAAGCUUGAGAGCAUCUUCGGAUGCAGAGGCGGCAGCCUUCGGUUGCGCGAUAGCGCCAACGUUCUCAAAUAUGACACGCAAAACGCGUGCUCCGUUGAAUGGAGGUUAUCAUG [G83U C108A U144G] to GGAUCUUCUCGAUCUAACAAAAAAGACAAAUCUGCCACAAAGCUUGAGAGCAUCUUCGGAUGCAGAGGCGGCAGCCUUCGGUUGCGCGAUAGUGCGAACGUUCUCAACUAUGACACGCAAAACGCGUGCUCCGUAGAAUGGAGUUUAUCAUG [G83U C93U C96G U135A], the “polymerase ribozyme fitness (log ratio)” value rises from no more than -4.2 to -2.89.

With GGAUCUUCUCGAUCUAACAAAAAAGACAAAUCUGCCACAAAGCUUGAGAGCAUCUUCGGAUGCAGAGGCGGCAGCCUUCGGUUGCGCGAUAGCGCAAACGUUCUCAACUAUGACACGCAAAACGCGUGCUCCGUUGAAUGGAGUUUAUCAUG [G83U C96A] the “polymerase ribozyme fitness (log ratio)” value was -0.528.
